Test results: the supplement of paper PMC3334620
The full ranking holds about 33,000 sequences; the median of “E-score (-0.5 to 0.5)” is about -0.043, and the highest 2% start at about 0.37. The list shows a part of the results.

These sequences were tested against T1, Upc2 (UniProt Q12151) (assay: PBM E-score (8-mer binding enrichment) (E-score (-0.5 to 0.5)); higher = stronger / more preferred TF binding; most listed sequences are background and not binding sites). Settings: protein concentration: 200 nM; construct: GST-full length.
T1 sequence: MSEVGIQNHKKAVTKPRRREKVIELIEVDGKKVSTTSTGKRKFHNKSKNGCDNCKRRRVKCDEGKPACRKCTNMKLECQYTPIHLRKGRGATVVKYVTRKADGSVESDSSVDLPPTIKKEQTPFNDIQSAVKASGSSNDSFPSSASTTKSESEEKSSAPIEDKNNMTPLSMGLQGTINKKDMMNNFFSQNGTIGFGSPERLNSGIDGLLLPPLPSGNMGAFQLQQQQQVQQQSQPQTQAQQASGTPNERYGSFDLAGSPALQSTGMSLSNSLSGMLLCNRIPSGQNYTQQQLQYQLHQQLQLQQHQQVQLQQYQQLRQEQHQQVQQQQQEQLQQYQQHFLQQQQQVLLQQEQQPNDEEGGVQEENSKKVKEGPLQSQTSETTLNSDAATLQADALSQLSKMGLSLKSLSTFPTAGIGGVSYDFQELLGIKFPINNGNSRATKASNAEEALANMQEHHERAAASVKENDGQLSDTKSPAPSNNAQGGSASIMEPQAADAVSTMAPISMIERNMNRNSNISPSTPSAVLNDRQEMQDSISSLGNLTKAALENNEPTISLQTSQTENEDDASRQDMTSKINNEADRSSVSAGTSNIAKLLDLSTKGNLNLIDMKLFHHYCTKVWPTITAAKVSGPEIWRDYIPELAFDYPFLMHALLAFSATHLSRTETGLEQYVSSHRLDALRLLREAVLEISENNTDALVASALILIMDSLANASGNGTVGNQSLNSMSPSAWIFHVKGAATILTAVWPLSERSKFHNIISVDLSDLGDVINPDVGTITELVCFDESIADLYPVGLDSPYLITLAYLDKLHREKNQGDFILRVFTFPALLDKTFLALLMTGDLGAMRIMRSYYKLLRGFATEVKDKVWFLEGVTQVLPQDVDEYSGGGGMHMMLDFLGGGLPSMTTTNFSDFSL
Method in brief: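 PURExpress in vitro transcription/translation supplied GST-tagged yeast transcription factors, either full-length or DNA-binding domain. Applied at about 100-200 nM to universal all-10-mer Agilent arrays double-stranded by primer extension, the bound protein was detected with fluorescent anti-GST. E-scores, modified Wilcoxon-Mann-Whitney statistics, were given by the Universal PBM Analysis Suite to ungapped eight-base words pooled with their reverse complements after masliner normalisation.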

| Sequence | PBM E-score |
| --- | --- |
| CAGGATAA | -0.074 |
| AACGGATT | 0.2 |
| CAATATTC | 0.0379 |
| CCAGGAAC | 0.109 |
| ATGCGGGG | -0.165 |
| CTCATTTA | -0.0954 |
| AGACAGTC | -0.0784 |
| AACTGAAG | -0.0822 |
| TCAAGGCA | -0.37 |
| GCAATGGC | -0.172 |
| CCTCGGAG | -0.0377 |
| AGCCAGAA | -0.269 |
| ACGTTGTA | 0.0665 |
| GGGACACC | -0.175 |
| CAAGTGCC | -0.316 |
| CTCGGGAC | -0.0315 |
| ACTGGGCG | -0.178 |
| ACGGTGCA | 0.169 |
| TACTGTGA | 0.0563 |
| GCTTGAAC | 0.199 |
| CATCAGAG | -0.104 |
| CCGGCGGA | -0.185 |
| ACCGATAG | -0.0483 |
| CCGGACCG | 0.0283 |
| TACAAAGA | 0.134 |

| Sequence | PBM E-score |
| --- | --- |
| AGCAATCC | -0.121 |
| GGACCGGA | 0.0634 |
| AGGACCGG | -0.294 |
| GAATATCA | 0.0192 |
| CGTGAAGA | -0.0205 |
| CTGGACGC | -0.288 |
| ACCAAAAC | 0.0425 |
| ACCGGGAG | -0.115 |
| ATGTCTCC | -0.11 |
| TAACACTA | 0.179 |
| CTACTTGA | -0.0786 |
| ATGTGGAC | -0.212 |
| GCTCTAGA | -0.166 |
| ATGGACGA | -0.114 |
| GGCAGCCA | -0.234 |
| CCTTCTTA | -0.0392 |
| CAGATCCC | -0.0143 |
| ATAAGATC | 0.0589 |
| CACAACCG | 0.122 |
| ACCGGCGC | 0.0333 |
| ATGTTGTG | 0.0416 |
| CATTCTTA | -0.0744 |
| AGGAACTG | -0.367 |
| ACCGCCAA | -0.107 |
| TATTCCAA | 0.0307 |

| Sequence | PBM E-score |
| --- | --- |
| TCGACCAA | -0.204 |
| GTGGCGTA | 0.118 |
| GCGTAGAC | 0.0124 |
| CTGTTACC | 0.00711 |
| TGAGATAA | -0.142 |
| CATGCTGG | -0.328 |
| CTCTGATC | -0.171 |
| ATCCAAGA | -0.163 |
| CGCCAAAA | 0.13 |
| ACTTCGAC | 0.067 |
| GACGAGCA | 0.00509 |
| ACGACAGA | 0.328 |
| GTGGAATA | -0.0213 |
| ACTCCGCG | 0.0538 |
| CCTCGTCC | -0.3 |
| CCTCTGAA | -0.0906 |
| GGTATGAC | -0.204 |
| ATATGTTC | 0.108 |
| CCGTGCTC | -0.0459 |
| GGCCCAGA | -0.119 |
| AAGCCGAT | -0.0322 |
| TTACAAAA | 0.0336 |
| ATAATCAC | 0.0354 |
| CCGAGCTC | 0.197 |
| AGCAACAT | 0.0545 |

| Sequence | PBM E-score |
| --- | --- |
| CCAGTGCA | -0.0157 |
| AGAAGATC | 0.00501 |
| CCCCGGGA | -0.17 |
| ACTACCCA | -0.032 |
| CCTGCGGC | -0.282 |
| AAACCACC | -0.104 |
| AAAGAATG | 0.0179 |
| GACCTGGA | -0.0943 |
| AACCTCCT | -0.0765 |
| GCCCCACC | 0.0435 |
| AGTGGCCC | -0.197 |
| CAATCCGA | 0.0611 |
| AGCCTAAC | -0.0519 |
| AGGTCATA | 0.0789 |
| GGACTAAC | -0.0836 |
| CAGTCGAG | -0.128 |
| ACATAAAT | 0.0213 |
| GCACAGCA | -0.0358 |
| AACAACGT | 0.0176 |
| GCACAGAA | 0.00675 |
| AGACGATC | -0.0293 |
| ACTGGGAC | -0.052 |
| CCGGAGTA | 0.0983 |
| CATACCAA | -0.0379 |
| CTGCGTTC | 0.218 |

| Sequence | PBM E-score |
| --- | --- |
| ACGTGCCA | -0.178 |
| ATCGTCTG | 0.0923 |
| CCCGCGGG | -0.24 |
| GGACCGTA | 0.274 |
| GCTTGCTA | -0.0561 |
| AGTTGAGA | -0.105 |
| GGCGCCAA | -0.0176 |
| CGTCAGTC | -0.0936 |
| AAGTTTCA | 0.132 |
| CGCACACA | -0.0833 |
| GGCGGCCA | -0.162 |
| TATACTAA | 0.258 |
| ATATTCGG | -0.0205 |
| ATTTACGC | 0.154 |
| AGGCCCAG | -0.199 |
| GATAGCCA | -0.107 |
| CATGCTAC | -0.198 |
| ACTATATA | 0.188 |
| CCCGACCC | 0.0376 |
| ACCGAGTC | -0.0781 |
| ACCGACAG | 0.0284 |
| CTGATAAA | -0.0236 |
| CGCTACGA | 0.421 |
| CGTGCCCC | -0.0367 |
| CACAGGAG | -0.0197 |

| Sequence | PBM E-score |
| --- | --- |
| CTCGAACC | -0.0178 |
| CTGTGTGC | -0.193 |
| TAACAGTA | 0.0732 |
| ATAGTAAC | -0.0432 |
| GGACGCAA | -0.0564 |
| ATGCGTCC | -0.239 |
| ACAGTCAA | 0.0251 |
| ACGTTACT | 0.0821 |
| CATTGTCG | 0.0164 |
| TCAAAGCA | -0.113 |
| AACACAAA | 0.107 |
| GCGAGCTA | 0.207 |
| AGAGTAAA | 0.0457 |
| CGTGTCAG | -0.161 |
| AAATTCCT | -0.127 |
| ATAGTTCG | -0.00869 |
| CTGTGAAA | 0.0689 |
| CAGGCTAG | -0.141 |
| ACGCACGA | 0.181 |
| CATTGTAG | -0.0679 |
| CTTGTTCC | 0.0561 |
| GAACACTA | -0.14 |
| ATTGTTTA | -0.0224 |
| AGGTATTG | 0.00589 |
| ACGACCTC | 0.344 |

| Sequence | PBM E-score |
| --- | --- |
| CCTCCAGC | -0.0906 |
| ATATACAT | -0.0908 |
| GAAACTAC | -0.102 |
| CAGGAAAC | -0.0113 |
| AACTTACG | 0.198 |
| TTAATCAA | -0.00222 |
| CCGAGACC | 0.0331 |
| GTACTATA | 0.172 |
| GGGAAACC | -0.0204 |
| AAATCCGG | 0.0202 |
| GAACCGAA | 0.249 |
| AAGTTGAC | -0.0173 |
| CATCACCC | -0.233 |
| GGAGCAAC | -0.153 |
| ACAGCGCT | 0.128 |
| CAAAAGCA | 0.0182 |
| GTGAAAAC | -0.0279 |
| AGCGAAGC | 0.188 |
| CTAAACAA | -0.156 |
| ATCCCCCG | -0.047 |
| ACCAACCT | -0.00069 |
| CGAGGGGA | 0.275 |
